Reference: patent publication US20190367516A1 (Bayer Pharma Aktiengesellschaft, priority 2015, published 2019)

biological target: T1, human M2 receptor (Homo sapiens, UniProt P08172); conditions: read-out: Efficiency, M2-GIRK1/4 activation test; boosting of the acetylcholine effect at an EC20 acetylcholine concentration
T1 sequence (P08172 1-466): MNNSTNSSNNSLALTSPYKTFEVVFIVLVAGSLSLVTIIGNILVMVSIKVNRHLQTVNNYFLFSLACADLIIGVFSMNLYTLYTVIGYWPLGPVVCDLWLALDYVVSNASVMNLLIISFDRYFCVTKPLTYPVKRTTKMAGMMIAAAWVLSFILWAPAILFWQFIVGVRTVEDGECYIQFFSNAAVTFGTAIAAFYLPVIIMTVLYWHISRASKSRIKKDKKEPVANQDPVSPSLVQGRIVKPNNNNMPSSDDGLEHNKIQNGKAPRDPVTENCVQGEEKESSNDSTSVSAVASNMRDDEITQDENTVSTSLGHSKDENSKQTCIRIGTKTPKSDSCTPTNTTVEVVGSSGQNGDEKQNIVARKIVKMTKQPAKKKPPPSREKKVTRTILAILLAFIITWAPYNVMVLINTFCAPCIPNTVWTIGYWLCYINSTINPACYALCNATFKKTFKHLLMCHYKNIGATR

| SMILES | Emax [%] |
| --- | --- |
| CC[C@@H](NC(=O)c1cn(-c2ccc(F)cc2F)c2nc(NCCF)ccc2c1=O)C(F)(F)F [Example 27, 1-(2,4-Difluorophenyl)-7-[(2-fluoroethyl)amino]-4-oxo-N-[(2R)-1,1,1-trifluorobutan-2-yl]-1,4-dihydro-1,8-naphthyridine-3-carboxamide] | 97.7 |
| CC[C@@H](NC(=O)c1cn(-c2ccc(F)cc2F)c2nc(N3CC4C(C3)C4(F)F)ccc2c1=O)C(F)(F)F (stereo partly drawn) [Example 28, 7-(6,6-Difluoro-3-azabicyclo[3.1.0]hex-3-yl)-1-(2,4-difluorophenyl)-4-oxo-N-[(2R)-1,1,1-trifluorobutan-2-yl]-1,4-dihydro-1,8-naphthyridine-3-carboxamide] | 100 |
| CC[C@@H](NC(=O)c1cn(-c2ccc(F)cc2F)c2nc(N3C[C@@H](F)C[C@H]3C)ccc2c1=O)C(F)(F)F [Example 31, 1-(2,4-Difluorophenyl)-7-[(2R,4S)-4-fluoro-2-methylpyrrolidin-1-yl]-4-oxo-N-[(2R)-1,1,1-trifluorobutan-2-yl]-1,4-dihydro-1,8-naphthyridine-3-carboxamide] | 97 |
| CC[C@@H](NC(=O)c1cn(-c2ccc(F)cc2F)c2nc(N3CC(F)C3)ccc2c1=O)C(F)(F)F [Example 32, 1-(2,4-Difluorophenyl)-7-(3-fluoroazetidin-1-yl)-4-oxo-N-[(2R)-1,1,1-trifluorobutan-2-yl]-1,4-dihydro-1,8-naphthyridine-3-carboxamide] | 93.5 |
| CC[C@@H](NC(=O)c1cn(-c2ccc(F)cc2F)c2nc(N3CC[C@@H](F)[C@H](O)C3)ccc2c1=O)C(F)(F)F [Example 33, 1-(2,4-Difluorophenyl)-7-[(3R,4R)-4-fluoro-3-hydroxypiperidin-1-yl]-4-oxo-N-[(2R)-1,1,1-trifluorobutan-2-yl]-1,4-dihydro-1,8-naphthyridine-3-carboxamide] | 96.7 |
| CC[C@@H](NC(=O)c1cn(-c2ccc(F)cc2F)c2nc(N3CCC(O)(O)C(F)(F)C3)ccc2c1=O)C(F)(F)F [Example 35, 7-(3,3-Difluoro-4,4-dihydroxypiperidin-1-yl)-1-(2,4-difluorophenyl)-4-oxo-N-[(2R)-1,1,1-trifluorobutran-2-yl]-1,4-dihydro-1,8-naphthyridine-3-carboxamide] | 98.8 |
| CN(C)c1ccc2c(=O)c(C(=O)NC34CC5CC(CC(F)(C5)C3)C4)cn(-c3ccc(F)cc3F)c2n1 [Example 37, 1-(2,4-Difluorophenyl)-7-(dimethylamino)-N-(3-fluorotricyclo[3.3.1.1^3,7]dec-1-yl)-4-oxo-1,4-dihydro-1,8-naphthyridine-3-carboxamide] | 96.3 |
| CN(C)c1ccc2c(=O)c(C(=O)NC34CC5CC(F)(CC(F)(C5)C3)C4)cn(-c3ccc(F)cc3F)c2n1 [Example 38, 1-(2,4-Difluorophenyl)-N-(3,5-difluorotricyclo[3.3.1.1^3,7]dec-1-yl)-7-(dimethylamino)-4-oxo-1,4-dihydro-1,8-naphthyridine-3-carboxamide] | 100 |
| CN(C)c1ccc2c(=O)c(C(=O)NC34CC5CC(C3)C(F)(F)C(C5)C4)cn(-c3ccc(F)cc3F)c2n1 [Example 39, 1-(2,4-Difluorophenyl)-N-(4,4-difluorotricyclo[3.3.1.1^3,7]dec-1-yl)-7-(dimethylamino)-4-oxo-1,4-dihydro-1,8-naphthyridine-3-carboxamide] | 92.1 |
| CN(C)c1ccc2c(=O)c(C(=O)NC34CC5CC(C3)C(F)(F)C(C5)C4)cn(-c3ccc(F)cc3Cl)c2n1 [Example 40, 1-(2-Chloro-4-fluorophenyl)-N-(4,4-difluorotricyclo[3.3.1.1^3,7]dec-1-yl)-7-(dimethylamino)-4-oxo-1,4-dihydro-1,8-naphthyridine-3-carboxamide] | 94.2 |
| CN(C)c1ccc2c(=O)c(C(=O)NC34CC5CC(CC(C)(C5)C3)C4)cn(-c3ccc(F)cc3F)c2n1 [Example 41, 1-(2,4-Difluorophenyl)-7-(dimethylamino)-N-(3-methyltricyclo[3.3.1.1^3,7]dec-1-yl)-4-oxo-1,4-dihydro-1,8-naphthyridine-3-carboxamide] | 99.4 |
| CN(C)c1ccc2c(=O)c(C(=O)NC34CCC(C)(CC3)CC4)cn(-c3ccc(F)cc3F)c2n1 [Example 42, 1-(2,4-Difluorophenyl)-7-(dimethylamino)-N-(4-methylbicyclo[2.2.2]oct-1-yl)-4-oxo-1,4-dihydro-1,8-naphthyridine-3-carboxamide] | 94.5 |
| CN(C)c1ccc2c(=O)c(C(=O)NC(C)(C)C)cn(-c3ccc(F)cc3F)c2n1 [Example 43, N-tery-Butyl-1-(2,4-difluorophenyl)-7-(dimethylamino)-4-oxo-1,4-dihydro-1,8-naphthyridine-3-carboxamide] | 96.6 |
| C[C@H](NC(=O)c1cn(-c2ccc(F)cc2F)c2nc(N(C)C)ccc2c1=O)C(F)(F)F [Example 44, 1-(2,4-Difluorophenyl)-7-(dimethylamino)-4-oxo-N-[(2S)-1,1,1-trifluoropropan-2-yl]-1,4-dihydro-1,8-naphthyridine-3-carboxamide] | 98.3 |
| CC[C@H](NC(=O)c1cn(-c2ccc(F)cc2F)c2nc(N(C)C)ccc2c1=O)C(F)(F)F [Example 45, 1-(2,4-Difluorophenyl)-7-(dimethylamino)-4-oxo-N-[(2S)-1,1,1-trifluorobutan-2-yl]-1,4-dihydro-1,8-naphthyridine-3-carboxamide] | 99.7 |
| CN(C)c1ccc2c(=O)c(C(=O)NC34CCC(F)(CC3)CC4)cn(-c3ccc(F)cc3F)c2n1 [Example 47, 1-(2,4-Difluorophenyl)-7-(dimethylamino)-N-(4-fluorobicyclo[2.2.2]oct-1-yl)-4-oxo-1,4-dihydro-1,8-naphthyridine-3-carboxamide] | 100 |
| CN(C)c1ccc2c(=O)c(C(=O)NCc3c(Cl)cccc3Cl)cn(-c3ccc(F)cc3F)c2n1 [Example 49, N-(2,6-Dichlorobenzyl)-1-(2,4-difluorophenyl)-7-(dimethylamino)-4-oxo-1,4-dihydro-1,8-naphthyridine-3-carboxamide] | 86 |
| CN(C)c1ccc2c(=O)c(C(=O)NCc3ccc(F)cc3F)cn(-c3ccc(F)cc3F)c2n1 [Example 50, N-(2,4-Dmuorobenzyl)-1-(2,4-difluorophenyl)-7-(dimethylamino)-4-oxo-1,4-dihydro-1,8-naphthyridine-3-carboxamide] | 95 |
| Cc1cccc(C)c1CNC(=O)c1cn(-c2ccc(F)cc2F)c2nc(N(C)C)ccc2c1=O [Example 51, 1-(2,4-Difluorophenyl)-7-(dimethylamino)-N-(2,6-dimethylbenzyl)-4-oxo-1,4-dihydro-1,8-naphthyridine-3-carboxamide] | 95 |
| CN(C)c1ccc2c(=O)c(C(=O)Nc3c(F)cccc3F)cn(-c3ccc(F)cc3F)c2n1 [Example 52, 1-(2,4-Difluorophenyl)-N-(2,6-difluorophenyl)-7-(dimethylamino)-4-oxo-1,4-dihydro-1,8-naphthyridine-3-carboxamide] | 98.5 |
| CN(C)c1ccc2c(=O)c(C(=O)NC(C)(C)c3c(F)cccc3F)cn(-c3ccc(F)cc3F)c2n1 [Example 53, 1-(2,4-Difluorophenyl)-N-[2-(2,6-difluorophenyl)propan-2-yl]-7-(dimethylamino)-4-oxo-1,4-dihydro-1,8-naphthyridine-3-carboxamide] | 100 |
| Cc1cccc(C)c1NC(=O)c1cn(-c2ccc(F)cc2F)c2nc(N(C)C)ccc2c1=O [Example 54, 1-(2,4-Difluorophenyl)-7-(dimethylamino)-N-(2,6-dimethylphenyl)-4-oxo-1,4-dihydro-1,8-naphthyridine-3-carboxamide] | 98.3 |
| CN(C)c1ccc2c(=O)c(C(=O)Nc3c(Cl)cccc3Cl)cn(-c3ccc(F)cc3F)c2n1 [Example 55, N-(2,6-Dichlorophenyl)-1-(2,4-difluorophenyl)-7-(dimethylamino)-4-oxo-1,4-dihydro-1,8-naphthyridine-3-carboxamide] | 99.8 |
| CN(C)c1ccc2c(=O)c(C(=O)Nc3ccccc3C(F)(F)F)cn(-c3ccc(F)cc3F)c2n1 [Example 57, 1-(2,4-Difluorophenyl)-7-(dimethylamino)-4-oxo-N-[2-(trifluoromethyl)phenyl]-1,4-dihydro-1,8-naphthyridine-3-carboxamide] | 93.8 |
| CN(C)c1ccc2c(=O)c(C(=O)NCc3c(Cl)cccc3C(F)(F)F)cn(-c3ccc(F)cc3F)c2n1 [Example 58, N-[2-Chloro-6-(trifluoromethyl)benzyl]-1-(2,4-difluorophenyl)-7-(dimethylamino)-4-oxo-1,4-dihydro-l,8-naphthyridine-3-carboxamide] | 100 |
| CN(C)c1ccc2c(=O)c(C(=O)NCc3ccccc3C(F)(F)F)cn(-c3ccc(F)cc3F)c2n1 [Example 59, 1-(2,4-Difluorophenyl)-7-(dimethylamino)-4-oxo-N-[2-(trifluoromethyl)benzyl]-1,4-dihydro-1,8-naphthyridine-3-carboxamide] | 97 |
| CN(C)c1ccc2c(=O)c(C(=O)NCc3c(F)cccc3C(F)(F)F)cn(-c3ccc(F)cc3F)c2n1 [Example 60, 1-(2,4-Difluorophenyl)-7-(dimethylamino)-N-[2-fluoro-6-(trifluoromethyl)benzyl]-4-oxo-1,4-dihydro-1,8-naphthyridine-3-carboxamide] | 100 |
